Laboratory results from PubChem BioAssay AID686978 (National Center for Advancing Translational Sciences (NCATS), 2013).
The whole screen tested about 420,000 compounds, of which about 64,000 (15%) were called active. The inconclusive results got no clear call from the source; some entries with a clear call stand among them for comparison. Calls follow the shape of the dose curve; as a rule, active = well fitted inhibition curve with a large enough effect; inconclusive = small, poorly fitted or top-dose-only effect; inactive = flat fitted curve, though single readings scatter. Potencies of inconclusive entries are left out as doubtful fits.

Experiment: qHTS for Inhibitors of human tyrosyl-DNA phosphodiesterase 1 (TDP1): qHTS in cells in absence of CPT; also: nearly all actives have a fitted effect of over 55% in size
Details: DT40 Tdp1-/- hTDP1 cells, no CPT, ATP luminescence, 48 h; activity change, negative = growth inhibition: at 46.2 µM (top of the series) unless noted
Outline: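 Cells were dispensed at 400 per well, compounds added by pin tool, plates incubated ≥48 hr at 37 °C, then CellTiter-Glo added for 30 min at room temperature before luminescence reading. Line: DT40 Tdp1-/- complemented with hTDP1; camptothecin omitted.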
% is scaled to controls: 0 for no effect and ±100 for the full control effect; potency is read from the fitted curve at half-maximal effect; tags tell the direction and shape of the fitted curve.

| SMILES | Potency | activity change, negative = growth inhibition |
| --- | --- | --- |
| C=C(C)Cn1c2ccc(NC(=O)CCOCC)cc2c(=O)n1C | inactive | – |
| c1ccc(Nc2nc(N3CCOCC3)c3ccccc3n2)cc1 | active: 16.4 µM | – |
| CCN(CC)S(=O)(=O)c1ccc(NC(=O)CCNC(=O)c2ccccc2)cc1 | inconclusive [inhibitor, partial curve, poor fit] | – |
| O=C1CCC(C(=O)N2CCN(c3ccc(F)cc3)CC2)CN1CC1CCCCC1 (stereo not drawn) | inactive | – |
| COc1ccc(NC(=O)CCS(=O)(=O)c2cccc3nonc23)cc1 | inactive | – |
| COc1ccc(Cl)c(Cn2c(NCCCN(C)C)nc3c2c(=O)n(C)c(=O)n3C)c1 | inactive | – |
| COc1ccc(C(=O)NCCc2nnc3ccc(SCC(=O)Nc4ccccc4)nn23)cc1 | inconclusive [inhibitor, single point] | – |
| CCN1CCN(S(=O)(=O)c2ccc(Cl)c(C(=O)N(C)Cc3cccc(Cl)c3Cl)c2)CC1 | active: 20.6 µM | – |
| CC(C)(C)c1ccc(S(=O)(=O)NCC(=O)Nc2sc3c(c2C(N)=O)CCCC3)cc1 | inconclusive [inhibitor, single point] | – |
| COc1ccc(-c2cnc3nc(/N=C/N(C)C)nn3c2/N=C/N(C)C)cc1 | inconclusive [inhibitor, single point] | – |
| O=C(C[C@@H]1C/C=C\C[C@@H](NC(=O)OCC2c3ccccc3-c3ccccc32)C(=O)OC[C@@H](Cc2ccccc2)NC1=O)NCCO | active: 9.2 µM | – |
| O=C(c1cccc(F)c1)N1CCN(Cc2c[nH]c3ccccc23)CC1 | inconclusive [inhibitor, partial curve, poor fit] | – |
| Cc1nc2sc(C)c(C)n2c(=O)c1S(=O)(=O)N1CCN(c2ccccc2F)CC1 | inconclusive [inhibitor, single point] | – |
| O=C(/C=C/c1c(Cl)cccc1Cl)N1CCN(c2ncccn2)CC1 | inconclusive [inhibitor, single point] | – |
| CN1OC[C@@H]2CN(S(=O)(=O)c3cccc(C(F)(F)F)c3)[C@H](c3ccc(-c4cccnc4)cc3)C[C@@H]21 | active: 20.6 µM | – |
| CCn1c(SCc2nc3ccccc3c(=O)[nH]2)nc2ccccc2c1=O | inconclusive [inhibitor, partial curve] | – |
| CCn1c(/C=C/N(C(C)=O)c2ccccc2)[n+](CC)c2ccc(Cl)cc21 | active: 14.6 µM | – |
| CSc1nc(N)nc2c1ncn2CC(=O)N[C@H](C)c1cccc2ccccc12 | inconclusive [inhibitor, single point] | – |
| COc1cc(/C=N/NC(=O)c2sc(N)c(C#N)c2C)ccc1O | active: 14.6 µM | – |
| O=C(CSc1nc(Nc2ccccc2)nc(N2CCOCC2)n1)Nc1ccc([N+](=O)[O-])cc1 | active: 14.6 µM | – |
| Cc1cccc(N2CCN(C(=O)c3ccc4nc(N5CCC(C)CC5)sc4c3)CC2)c1C | active: 16.4 µM | – |
| COc1ccc(OC(=O)/C=C/c2ccc([N+](=O)[O-])cc2)cc1 | inconclusive [inhibitor, single point] | – |

| SMILES | Potency | activity change, negative = growth inhibition |
| --- | --- | --- |
| CC[C@@H]1CC=C[C@H]2[C@H]1C(=O)N(Cc1ccccc1)[C@H]2c1ccc(OC)c(Cl)c1 | active: 13 µM | – |
| Cc1ccc2c(Sc3ccc(Cl)cc3)c(C(=O)NCCC(C)C)[nH]c2c1 | inconclusive [inhibitor, single point] | – |
| C=CCn1c(SCC(=O)N2CCN(C(=O)c3ccco3)CC2)nc2sc(CC)cc2c1=O | inconclusive [inhibitor, partial curve] | – |
| COc1ccc(Cl)cc1-c1cc(C(=O)NCc2cccc(Cl)c2)[nH]n1 | inconclusive [inhibitor, partial curve, poor fit] | – |
| CC(OC(=O)c1ccc(C(C)(C)C)cc1)C(=O)NC1CCCCC1C (stereo not drawn) | inconclusive [inhibitor, single point] | – |
| C=Cc1ncc(OC)c2c1[nH]c1ccccc12 | active: 3.66 µM | – |
| CCN(CC(=O)NCc1cccs1)C(=O)c1cccc(S(=O)(=O)NC)c1 | inconclusive [inhibitor, partial curve, poor fit] | – |
| CC(C)c1ccc(NC(=O)NCc2cccnc2)cc1 | inactive | – |
| COc1ccc(-c2ccc(CN3C(C(C)C)C(=O)N(Cc4cn(CCC5OCCCO5)nn4)CCS3(=O)=O)cc2)cn1 (stereo not drawn) | active: 20.6 µM | – |
| O=C(N[C@@H](Cc1ccccc1)C(=O)OCc1ccccc1)c1nc[nH]c1C(=O)NC(c1ccccc1)c1ccccc1 | inconclusive [inhibitor, single point] | – |
| Nc1ccc(Br)c2cccnc12 | inconclusive [inhibitor, partial curve, poor fit] | – |
| COc1cccc(NC(=O)NCCCN2CCN(c3ccc(F)cc3)CC2)c1 | inconclusive [inhibitor, single point] | – |
| O=C(Nc1nc2c(F)cccc2s1)c1ccc(S(=O)(=O)N2CCOCC2)cc1 | inactive | – |
| COc1ccc(C(O)(c2ccccc2OC)C(CN2CCOCC2)c2ccccc2)cc1 (stereo not drawn) | inconclusive [inhibitor, single point] | – |
| CC(C)(C)c1nnc(NC(=O)c2cccnc2)s1 | – | inconclusive: -33.2% [inhibitor] |
| CC(C)CNC(=O)c1[nH]c(C(F)(F)F)nc1-c1ccccc1 | inactive | – |
| O=C(N/N=C/c1ccc(N2CCCCC2)o1)c1ccccc1 | active: 11.6 µM | – |
| Cc1sc2ncn(CC(=O)N3CCN(c4ccc(F)cc4)CC3)c(=O)c2c1S(=O)(=O)N1CCOCC1 | inconclusive [inhibitor, single point] | – |
| Cc1onc(NC(=O)c2ccc([N+](=O)[O-])o2)c1Br | inconclusive [inhibitor, single point] | – |
| COC(=O)N1CCC[C@@]2(CCN(C(c3ccccc3)c3ccccc3)C2)C1 | inconclusive [inhibitor, single point] | – |
| CCc1nn(CC(=O)NC(C)CCc2ccccc2)c(=O)c2cc3occc3n12 (stereo not drawn) | inconclusive [inhibitor, single point] | – |
